Source: the supplement of paper PMC8728848
The other results are listed elsewhere or left out.

Assays:
Assay in all cases: glycan array binding signal (z-score within array); higher = stronger binding
Settings in all cases: glycan notation: IUPAC condensed, linker removed
[1] = target: Fuc(a1-2)Gal6S(b1-3)GlcNAc6S
Method in brief: (§1)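 From the Consortium for Functional Glycomics database, 3228 arrays were curated, keeping only those whose protein sequence was available. Binding is given as a within-array Z-score averaged across arrays sharing a protein sequence and across linkers. Negative Z-scores can be read as non-binding.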

Fuc(a1-2)Gal6S(b1-4)Glc = target: Fuc(a1-2)Gal6S(b1-4)Glc
Method in brief: as §1

[2] = target: Fuc(a1-2)Gal6S(b1-4)Glc6S
Method in brief: as §1

Fuc(a1-2)[Gal(a1-3)]Gal = target: Fuc(a1-2)[Gal(a1-3)]Gal
Method in brief: as §1

[3] = target: Fuc(a1-2)[Gal(a1-3)]Gal(b1-3)GalNAc
Method in brief: as §1

[4] = target: Fuc(a1-2)[Gal(a1-3)]Gal(b1-3)GalNAc(b1-3)Gal(a1-4)Gal(b1-4)Glc
Method in brief: as §1

[5] = target: Fuc(a1-2)[Gal(a1-3)]Gal(b1-3)GlcNAc
Method in brief: as §1

[6] = target: Fuc(a1-2)[Gal(a1-3)]Gal(b1-3)GlcNAc(b1-2)Man(a1-3)[Fuc(a1-2)[Gal(a1-3)]Gal(b1-3)GlcNAc(b1-2)Man(a1-6)]Man(b1-4)GlcNAc(b1-4)GlcNAc
Method in brief: as §1

[7] = target: Fuc(a1-2)[Gal(a1-3)]Gal(b1-3)GlcNAc(b1-2)Man(a1-3)[Fuc(a1-2)[Gal(a1-3)]Gal(b1-3)GlcNAc(b1-2)Man(a1-6)]Man(b1-4)GlcNAc(b1-4)[Fuc(a1-6)]GlcNAc
Method in brief: as §1

[8] = target: Fuc(a1-2)[Gal(a1-3)]Gal(b1-3)GlcNAc(b1-3)GalNAc
Method in brief: as §1

[9] = target: Fuc(a1-2)[Gal(a1-3)]Gal(b1-3)GlcNAc(b1-6)GalNAc
Method in brief: as §1

[10] = target: Fuc(a1-2)[Gal(a1-3)]Gal(b1-4)Glc
Method in brief: as §1

[11] = target: Fuc(a1-2)[Gal(a1-3)]Gal(b1-4)GlcNAc
Method in brief: as §1

[12] = target: Fuc(a1-2)[Gal(a1-3)]Gal(b1-4)GlcNAc(b1-2)Man
Method in brief: as §1

[13] = target: Fuc(a1-2)[Gal(a1-3)]Gal(b1-4)GlcNAc(b1-2)Man(a1-3)[Fuc(a1-2)[Gal(a1-3)]Gal(b1-4)GlcNAc(b1-2)Man(a1-6)]Man(b1-4)GlcNAc(b1-4)GlcNAc
Method in brief: as §1

[14] = target: Fuc(a1-2)[Gal(a1-3)]Gal(b1-4)GlcNAc(b1-2)Man(a1-3)[Fuc(a1-2)[Gal(a1-3)]Gal(b1-4)GlcNAc(b1-2)Man(a1-6)]Man(b1-4)GlcNAc(b1-4)[Fuc(a1-6)]GlcNAc
Method in brief: as §1

[15] = target: Fuc(a1-2)[Gal(a1-3)]Gal(b1-4)GlcNAc(b1-3)GalNAc
Method in brief: as §1

[16] = target: Fuc(a1-2)[Gal(a1-3)]Gal(b1-4)GlcNAc(b1-3)[Fuc(a1-2)[Gal(a1-3)]Gal(b1-4)GlcNAc(b1-6)]GalNAc
Method in brief: as §1

[17] = target: Fuc(a1-2)[Gal(a1-3)]Gal(b1-4)GlcNAc(b1-6)GalNAc
Method in brief: as §1

[18] = target: Fuc(a1-2)[Gal(a1-3)]Gal(b1-4)[Fuc(a1-3)]Glc
Method in brief: as §1

[19] = target: Fuc(a1-2)[Gal(a1-3)]Gal(b1-4)[Fuc(a1-3)]GlcNAc
Method in brief: as §1

[20] = target: Fuc(a1-2)[Gal(a1-3)]Gal(b1-4)[Fuc(a1-3)]GlcNAc(b1-3)GalNAc
Method in brief: as §1

[21] = target: Fuc(a1-2)[Gal(a1-4)]Gal(b1-4)GlcNAc
Method in brief: as §1

[22] = target: Fuc(a1-2)[GalNAc(a1-3)]Gal
Method in brief: as §1

[23] = target: Fuc(a1-2)[GalNAc(a1-3)]Gal(b1-3)GalNAc(a1-3)[Fuc(a1-2)]Gal(b1-4)GlcNAc
Method in brief: as §1

[24] = target: Fuc(a1-2)[GalNAc(a1-3)]Gal(b1-3)GalNAc(b1-3)Gal(a1-4)Gal(b1-4)Glc
Method in brief: as §1

[25] = target: Fuc(a1-2)[GalNAc(a1-3)]Gal(b1-3)GlcNAc
Method in brief: as §1

[26] = target: Fuc(a1-2)[GalNAc(a1-3)]Gal(b1-3)GlcNAc(b1-2)Man(a1-3)[Fuc(a1-2)[GalNAc(a1-3)]Gal(b1-3)GlcNAc(b1-2)Man(a1-6)]Man(b1-4)GlcNAc(b1-4)GlcNAc
Method in brief: as §1

[27] = target: Fuc(a1-2)[GalNAc(a1-3)]Gal(b1-3)GlcNAc(b1-2)Man(a1-3)[Fuc(a1-2)[GalNAc(a1-3)]Gal(b1-3)GlcNAc(b1-2)Man(a1-6)]Man(b1-4)GlcNAc(b1-4)[Fuc(a1-6)]GlcNAc
Method in brief: as §1

[28] = target: Fuc(a1-2)[GalNAc(a1-3)]Gal(b1-3)GlcNAc(b1-3)GalNAc
Method in brief: as §1

[29] = target: Fuc(a1-2)[GalNAc(a1-3)]Gal(b1-3)GlcNAc(b1-6)GalNAc
Method in brief: as §1

[30] = target: Fuc(a1-2)[GalNAc(a1-3)]Gal(b1-4)Glc
Method in brief: as §1

[31] = target: Fuc(a1-2)[GalNAc(a1-3)]Gal(b1-4)GlcNAc
Method in brief: as §1

[32] = target: Fuc(a1-2)[GalNAc(a1-3)]Gal(b1-4)GlcNAc(b1-2)Man
Method in brief: as §1

[33] = target: Fuc(a1-2)[GalNAc(a1-3)]Gal(b1-4)GlcNAc(b1-2)Man(a1-3)[Fuc(a1-2)[GalNAc(a1-3)]Gal(b1-4)GlcNAc(b1-2)Man(a1-6)]Man(b1-4)GlcNAc(b1-4)GlcNAc
Method in brief: as §1

[34] = target: Fuc(a1-2)[GalNAc(a1-3)]Gal(b1-4)GlcNAc(b1-2)Man(a1-3)[Fuc(a1-2)[GalNAc(a1-3)]Gal(b1-4)GlcNAc(b1-2)Man(a1-6)]Man(b1-4)GlcNAc(b1-4)[Fuc(a1-6)]GlcNAc
Method in brief: as §1

[35] = target: Fuc(a1-2)[GalNAc(a1-3)]Gal(b1-4)GlcNAc(b1-3)Gal(b1-4)GlcNAc
Method in brief: as §1

[36] = target: Fuc(a1-2)[GalNAc(a1-3)]Gal(b1-4)GlcNAc(b1-3)Gal(b1-4)GlcNAc(b1-3)Gal(b1-4)GlcNAc
Method in brief: as §1

[37] = target: Fuc(a1-2)[GalNAc(a1-3)]Gal(b1-4)GlcNAc(b1-3)GalNAc
Method in brief: as §1

[38] = target: Fuc(a1-2)[GalNAc(a1-3)]Gal(b1-4)GlcNAc(b1-3)[Fuc(a1-2)[GalNAc(a1-3)]Gal(b1-4)GlcNAc(b1-6)]GalNAc
Method in brief: as §1

[39] = target: Fuc(a1-2)[GalNAc(a1-3)]Gal(b1-4)GlcNAc(b1-6)GalNAc
Method in brief: as §1

[40] = target: Fuc(a1-2)[GalNAc(a1-3)]Gal(b1-4)[Fuc(a1-3)]GlcNAc
Method in brief: as §1

[41] = target: Fuc(a1-2)[GalNAc(a1-3)]Gal(b1-4)[Fuc(a1-3)]GlcNAc(b1-3)GalNAc
Method in brief: as §1

[42] = target: Fuc(a1-2)[GalNAc(a1-4)]Gal(b1-4)GlcNAc
Method in brief: as §1

[43] = target: Fuc(a1-2)[GalNAc(b1-3)]Gal
Method in brief: as §1

B1: Thrombomodulin (Mus musculus) (protein)
chain: ALAKLQPTGSQCVEHECFALFQGPATFLDASQACQRLQGHLMTVRSSVAADVISLLLSQSSMDLGPWIGLQLPQGCDDPVHLGPLRGFQWVTGDNHTSYSRWARPNDQTAPLCGPLCVTVSTATEAAPGEPAWEEKPCETETQGFLCEFYFTASC
- glycan array binding signal (z-score) [1]: 0.036
- glycan array binding signal (z-score) (Fuc(a1-2)Gal6S(b1-4)Glc): 0
- glycan array binding signal (z-score) [2]: -0.056
- glycan array binding signal (z-score) (Fuc(a1-2)[Gal(a1-3)]Gal): -0.245
- glycan array binding signal (z-score) [3]: -0.148
- glycan array binding signal (z-score) [4]: -0.225
- glycan array binding signal (z-score) [5]: 0.177
- glycan array binding signal (z-score) [6]: -0.306
- glycan array binding signal (z-score) [7]: -0.076
- glycan array binding signal (z-score) [8]: -0.103
- glycan array binding signal (z-score) [9]: -0.252
- glycan array binding signal (z-score) [10]: 0.226
- glycan array binding signal (z-score) [11]: -0.22
- glycan array binding signal (z-score) [12]: -0.27
- glycan array binding signal (z-score) [13]: -0.022
- glycan array binding signal (z-score) [14]: -0.116
- glycan array binding signal (z-score) [15]: 0.002
- glycan array binding signal (z-score) [16]: 5.4
- glycan array binding signal (z-score) [17]: -0.16
- glycan array binding signal (z-score) [18]: -0.271
- glycan array binding signal (z-score) [19]: -0.199
- glycan array binding signal (z-score) [20]: -0.095
- glycan array binding signal (z-score) [21]: 0.154
- glycan array binding signal (z-score) [22]: -0.227
- glycan array binding signal (z-score) [23]: 0.021
- glycan array binding signal (z-score) [24]: -0.176
- glycan array binding signal (z-score) [25]: 0.149
- glycan array binding signal (z-score) [26]: -0.081
- glycan array binding signal (z-score) [27]: 0.01
- glycan array binding signal (z-score) [28]: 0.368
- glycan array binding signal (z-score) [29]: -0.493
- glycan array binding signal (z-score) [30]: -0.15
- glycan array binding signal (z-score) [31]: -0.186
- glycan array binding signal (z-score) [32]: -0.381
- glycan array binding signal (z-score) [33]: -0.083
- glycan array binding signal (z-score) [34]: -0.196
- glycan array binding signal (z-score) [35]: -0.368
- glycan array binding signal (z-score) [36]: -0.007
- glycan array binding signal (z-score) [37]: -0.346
- glycan array binding signal (z-score) [38]: -0.256
- glycan array binding signal (z-score) [39]: -0.28
- glycan array binding signal (z-score) [40]: -0.298
- glycan array binding signal (z-score) [41]: -0.197
- glycan array binding signal (z-score) [42]: -0.109
- glycan array binding signal (z-score) [43]: -0.108
